Experimental findings from publication PMC11550485 (Science (New York, N.Y.), 2023) are described below.

This assay has as its target T1, GST-TRIM11 (human, UniProt Q96F44 1-468).
T1 sequence (looked up): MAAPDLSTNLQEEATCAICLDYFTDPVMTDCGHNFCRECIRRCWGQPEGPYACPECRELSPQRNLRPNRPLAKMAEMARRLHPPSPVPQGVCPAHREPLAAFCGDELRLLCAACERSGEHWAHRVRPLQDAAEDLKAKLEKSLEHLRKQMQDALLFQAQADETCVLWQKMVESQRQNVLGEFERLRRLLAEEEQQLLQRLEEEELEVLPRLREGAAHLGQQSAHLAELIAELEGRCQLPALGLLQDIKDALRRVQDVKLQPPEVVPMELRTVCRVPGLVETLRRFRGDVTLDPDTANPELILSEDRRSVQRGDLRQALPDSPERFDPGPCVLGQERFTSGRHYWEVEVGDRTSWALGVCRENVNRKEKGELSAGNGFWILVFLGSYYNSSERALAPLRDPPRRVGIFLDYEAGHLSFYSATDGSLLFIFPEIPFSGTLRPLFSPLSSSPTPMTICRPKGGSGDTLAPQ
Briefly: pull-down.

B1: 6×His-GFP-tau P301L (natural protein)
chain: not shown
B1: the binding result is “binds”.
